Laboratory results reported in the supplement of paper PMC8728848.
The other results are listed elsewhere or left out.

What was measured:
Experiment in all cases: glycan array binding signal (z-score within array); higher = stronger binding
Conditions in all cases: glycan notation: IUPAC condensed, linker removed
[1] = target: GlcNAc(a1-6)Gal(b1-4)GlcNAc
How it was run: (§1)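 Glycan array data were curated from 3228 arrays in the Consortium for Functional Glycomics database and kept only where the protein sequence was available. Glycan names were converted to IUPAC-condensed notation, and columns mapping to the same glycan were averaged. The binding signal is a within-array Z-score, averaged across arrays of the same protein sequence at different concentrations or buffers and across linkers. Negative Z-scores can be read as non-binding.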

[2] = target: GlcNAc(b1-2)Gal(b1-3)GalNAc
How it was run: as §1

[3] = target: GlcNAc(b1-2)Man(a1-3)[GlcNAc(b1-2)Man(a1-6)]Man(b1-4)GlcNAc(b1-4)GlcNAc
How it was run: as §1

[4] = target: GlcNAc(b1-2)Man(a1-3)[GlcNAc(b1-2)Man(a1-6)]Man(b1-4)GlcNAc(b1-4)[Fuc(a1-6)]GlcNAc
How it was run: as §1

GlcNAc(b1-3)Gal = target: GlcNAc(b1-3)Gal
How it was run: as §1

[5] = target: GlcNAc(b1-3)Gal(b1-3)GalNAc
How it was run: as §1

GlcNAc(b1-3)Gal(b1-4)Glc = target: GlcNAc(b1-3)Gal(b1-4)Glc
How it was run: as §1

[6] = target: GlcNAc(b1-3)Gal(b1-4)GlcNAc
How it was run: as §1

[7] = target: GlcNAc(b1-3)Gal(b1-4)GlcNAc(b1-3)Gal(b1-4)GlcNAc
How it was run: as §1

GlcNAc(b1-3)GalNAc = target: GlcNAc(b1-3)GalNAc
How it was run: as §1

GlcNAc(b1-3)Man = target: GlcNAc(b1-3)Man
How it was run: as §1

[8] = target: GlcNAc(b1-3)[GlcNAc(b1-4)][GlcNAc(b1-6)]GlcNAc
How it was run: as §1

[9] = target: GlcNAc(b1-3)[GlcNAc(b1-6)]Gal(b1-4)GlcNAc
How it was run: as §1

[10] = target: GlcNAc(b1-3)[GlcNAc(b1-6)]GalNAc
How it was run: as §1

[11] = target: GlcNAc(b1-4)Gal(b1-4)GlcNAc
How it was run: as §1

GlcNAc(b1-4)GlcNAc = target: GlcNAc(b1-4)GlcNAc
How it was run: as §1

[12] = target: GlcNAc(b1-4)GlcNAc(b1-4)GlcNAc
How it was run: as §1

[13] = target: GlcNAc(b1-4)GlcNAc(b1-4)GlcNAc(b1-4)GlcNAc(b1-4)GlcNAc
How it was run: as §1

[14] = target: GlcNAc(b1-4)GlcNAc(b1-4)GlcNAc(b1-4)GlcNAc(b1-4)GlcNAc(b1-4)GlcNAc
How it was run: as §1

[15] = target: GlcNAc(b1-4)[GlcNAc(b1-6)]GalNAc
How it was run: as §1

[16] = target: GlcNAc(b1-6)Gal(b1-4)GlcNAc
How it was run: as §1

GlcNAc(b1-6)GalNAc = target: GlcNAc(b1-6)GalNAc
How it was run: as §1

GlcNAc3Prop(b1-4)GlcNAc = target: GlcNAc3Prop(b1-4)GlcNAc
How it was run: as §1

[17] = target: GlcNAc6S(b1-3)Gal(b1-4)GlcNAc
How it was run: as §1

Kdn(a2-3)Gal(b1-3)GalNAc = target: Kdn(a2-3)Gal(b1-3)GalNAc
How it was run: as §1

Kdn(a2-3)Gal(b1-3)GlcNAc = target: Kdn(a2-3)Gal(b1-3)GlcNAc
How it was run: as §1

Kdn(a2-3)Gal(b1-4)Glc = target: Kdn(a2-3)Gal(b1-4)Glc
How it was run: as §1

Kdn(a2-3)Gal(b1-4)GlcNAc = target: Kdn(a2-3)Gal(b1-4)GlcNAc
How it was run: as §1

[18] = target: Kdn(a2-3)Gal(b1-4)[Fuc(a1-3)]GlcNAc
How it was run: as §1

Kdn(a2-6)Gal(b1-4)GlcNAc = target: Kdn(a2-6)Gal(b1-4)GlcNAc
How it was run: as §1

[19] = target: Man(a1-2)Man(a1-2)Man(a1-3)Man
How it was run: as §1

[20] = target: Man(a1-2)Man(a1-2)Man(a1-6)[Man(a1-3)]Man
How it was run: as §1

Man(a1-2)Man(a1-3)Man = target: Man(a1-2)Man(a1-3)Man
How it was run: as §1

[21] = target: Man(a1-2)Man(a1-3)[Man(a1-2)Man(a1-6)]Man
How it was run: as §1

[22] = target: Man(a1-2)Man(a1-3)[Man(a1-2)Man(a1-6)]Man(a1-6)[Man(a1-2)Man(a1-2)Man(a1-3)]Man
How it was run: as §1

[23] = target: Man(a1-2)Man(a1-3)[Man(a1-2)Man(a1-6)]Man(a1-6)[Man(a1-2)Man(a1-2)Man(a1-3)]Man(b1-4)GlcNAc(b1-4)GlcNAc
How it was run: as §1

[24] = target: Man(a1-2)Man(a1-3)[Man(a1-6)]Man(a1-6)[Man(a1-2)Man(a1-3)]Man(b1-4)GlcNAc(b1-4)GlcNAc
How it was run: as §1

B1: Spy0252 (Streptococcus pyogenes), Q9A1I9_STRP1 (protein)
chain: MNMKKLASLAMLGASVLGLAACGGKSQKEAGASKSDTAKTEITWWAFPVFTQEKAEDGVGTYEKKLIAAFEKANPEIKVKLETIDFTSGPEKITTAIEAGTAPDVLFDAPGRIIQYGKNGKLADLNDLFTEEFTKDVNNDKLIQASKAGDTAYMYPISSAPFYMALNKKMLKDAGVLDLVKEGWTTDDFEKVLKALKDKGYNPGSFFANGQGGDQGPRAFFANLYSSHITDDKVTKYTTDDANSIKAMTKISNWIKDGLMMNGSQYDGSADIQNFANGQTSFTILWAPAQPGIQAKLLEASKVDYLEIPFPSDDGKPELEYLVNGFAVFNNKDEQKVAASKTFIQFIADDKEWGPKNVVRTGAFPVRTSYGDLYKDKRMEKIAEWTKFYSPYYNTIDGFAEMRTLWFPMVQAVSNGDEKPEDALKAFTEKANKTIKKTQ
With B1 as the binder, how does the “glycan array binding signal (z-score)” value [1] read?
Its value is -0.273.

What about the “glycan array binding signal (z-score)” value [2] of the same binder?
Its value is -0.171.

And the “glycan array binding signal (z-score)” value [3]?
Its value is -0.262.

And the “glycan array binding signal (z-score)” value [4]?
Its value is -0.186.

And the “glycan array binding signal (z-score)” value (GlcNAc(b1-3)Gal)?
Its value is -0.277.

What about the “glycan array binding signal (z-score)” value [5] of the same binder?
Its value is -0.105.

What about the “glycan array binding signal (z-score)” value (GlcNAc(b1-3)Gal(b1-4)Glc) of the same binder?
The value was -0.2.

What about the “glycan array binding signal (z-score)” value [6] of the same binder?
The value was -0.267.

And the “glycan array binding signal (z-score)” value [7]?
The value was -0.263.

And the “glycan array binding signal (z-score)” value (GlcNAc(b1-3)GalNAc)?
Its value is -0.26.

What about the “glycan array binding signal (z-score)” value (GlcNAc(b1-3)Man) of the same binder?
The value was -0.263.

What about the “glycan array binding signal (z-score)” value [8] of the same binder?
Its value is -0.264.

What about the “glycan array binding signal (z-score)” value [9] of the same binder?
The value was -0.257.

What about the “glycan array binding signal (z-score)” value [10] of the same binder?
The value was -0.259.

What about the “glycan array binding signal (z-score)” value [11] of the same binder?
The value was -0.249.

And the “glycan array binding signal (z-score)” value (GlcNAc(b1-4)GlcNAc)?
Its value is -0.22.

What about the “glycan array binding signal (z-score)” value [12] of the same binder?
Its value is 0.018.

And the “glycan array binding signal (z-score)” value [13]?
The value was -0.148.

What about the “glycan array binding signal (z-score)” value [14] of the same binder?
The value was 0.095.

And the “glycan array binding signal (z-score)” value [15]?
The value was -0.277.

And the “glycan array binding signal (z-score)” value [16]?
Its value is -0.261.

What about the “glycan array binding signal (z-score)” value (GlcNAc(b1-6)GalNAc) of the same binder?
Its value is -0.204.

What about the “glycan array binding signal (z-score)” value (GlcNAc3Prop(b1-4)GlcNAc) of the same binder?
Its value is 0.218.

And the “glycan array binding signal (z-score)” value [17]?
The value was -0.161.

And the “glycan array binding signal (z-score)” value (Kdn(a2-3)Gal(b1-3)GalNAc)?
Its value is -0.249.

What about the “glycan array binding signal (z-score)” value (Kdn(a2-3)Gal(b1-3)GlcNAc) of the same binder?
Its value is -0.248.

What about the “glycan array binding signal (z-score)” value (Kdn(a2-3)Gal(b1-4)Glc) of the same binder?
Its value is 0.495.

What about the “glycan array binding signal (z-score)” value (Kdn(a2-3)Gal(b1-4)GlcNAc) of the same binder?
Its value is -0.267.

What about the “glycan array binding signal (z-score)” value [18] of the same binder?
Its value is -0.26.

And the “glycan array binding signal (z-score)” value (Kdn(a2-6)Gal(b1-4)GlcNAc)?
Its value is -0.273.

What about the “glycan array binding signal (z-score)” value [19] of the same binder?
The value was -0.235.

And the “glycan array binding signal (z-score)” value [20]?
The value was -0.258.

What about the “glycan array binding signal (z-score)” value (Man(a1-2)Man(a1-3)Man) of the same binder?
Its value is -0.211.

What about the “glycan array binding signal (z-score)” value [21] of the same binder?
The value was -0.267.

And the “glycan array binding signal (z-score)” value [22]?
Its value is -0.264.

What about the “glycan array binding signal (z-score)” value [23] of the same binder?
Its value is -0.273.

What about the “glycan array binding signal (z-score)” value [24] of the same binder?
Its value is -0.253.
